Data reported in PubChem BioAssay AID1240 (Sanford-Burnham Center for Chemical Genomics, 2008).
Screen size: about 50,000 compounds; about 800 (1.6%) showed an effect of 50% or more. This is one part of the list.

Target: Bcl-2-like protein 10 (Homo sapiens) (UniProt Q9HD36)
Test: Phenotype converters, Bcl-B/TR3 peptide binding displacement, primary biochemical FP (AID 1240);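 also: 0% = Bcl-B with tracer peptide and DMSO and 100% = tracer peptide lacking Bcl-B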
Settings: GST-Bcl-B / FITC-TR3 peptide fluorescence polarization; stronger effect = higher value; compound at 3.75 mg/L

UniProt Q9HD36, sequence (Q9HD36 whole entry, looked up): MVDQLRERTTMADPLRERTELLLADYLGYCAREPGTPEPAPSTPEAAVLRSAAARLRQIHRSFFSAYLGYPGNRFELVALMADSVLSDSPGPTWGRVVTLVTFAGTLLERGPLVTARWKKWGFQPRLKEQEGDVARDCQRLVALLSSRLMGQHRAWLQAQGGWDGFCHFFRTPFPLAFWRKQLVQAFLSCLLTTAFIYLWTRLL

| SMILES | displacement |
| --- | --- |
| O=C(Nc1ccccc1OC(F)(F)C(F)C(F)(F)F)C(c1ccccc1)c1ccccc1 (centres undefined) | -13.8% |
| Cc1ccc(-c2nc3ccccc3c(C(=O)O)c2C)s1 | 0% |
| COc1ccc(Cl)cc1C(=O)Nc1nc(-c2ccc(C)cc2C)cs1 | -1.3% |
| O=C(Nc1ccccc1)c1ccccc1OCC(O)CN1C(=O)c2ccccc2S1(=O)=O (centres undefined) | -11% |
| O=C(Nc1nccs1)c1ccc2ccccc2c1 | 14.3% |
| c1ccc(C2NCCn3cccc32)cc1 (centres undefined) | 5% |
| Cc1cc(C)cc(NC(=O)C2CCCCC2)c1 | -10.4% |
| Cc1oc2cc(Br)c(OCC(=O)C(C)(C)C)cc2c1C(=O)OC(C)C | 18.1% |
| CN1C(=O)/C(=C/c2ccc(N3CCCC3)cc2)C(=O)N(c2ccccc2)C1=S | -7.3% |
| CCC1=NN(C(=O)c2ccc(OC)cc2)C(O)(c2ccncc2)C1 (centres undefined) | -22.8% |
| COC(=O)CN(c1cccc(Cl)c1)S(=O)(=O)c1ccccc1 | 2.5% |
| O=C(CCNC(=O)/C(=C\c1ccccc1)NC(=O)c1ccco1)OCc1ccccc1 | 0.4% |
| Cc1ccc(NC(=O)C2CC(=O)N(c3ccccc3C)C2)cc1 (centres undefined) | -34.1% |
| CCOC(=O)CCc1c(C)nc2cc(-c3ccc(I)cc3)[nH]n2c1=O | -5.3% |
| COc1cc(/C=N/NC(N)=O)ccc1OCC(=O)N1CCCCC1 | -4.4% |
| O=C(N/N=C/c1cc(Br)cc(I)c1O)C(O)c1ccccc1 (centres undefined) | 1.2% |
| Cc1ccnc(NC(=O)COc2cc(C)c(Cl)c(C)c2)c1 | 6.8% |
| CCOc1cc(/C=C2/SC(=S)N(C)C2=O)ccc1OCc1ccccc1Cl | 2.3% |
| C=CCn1c(-c2cccc(Br)c2)n[nH]c1=S | 12% |
| O=C1NC(=Nc2ccc(F)cc2)SC1Cc1cccc(Cl)c1 (centres undefined) | -2.1% |
| Cn1/c(=N/N=C/c2c(F)cccc2Cl)sc2ccccc21 | -5.8% |
| CSc1nc2ccc(NC(=O)c3ccc([N+](=O)[O-])o3)cc2s1 | 11.9% |

| SMILES | displacement |
| --- | --- |
| Cc1ccc(SCCNC(=O)c2ccccc2)cc1 | 4.5% |
| Cc1cc(C)n2ncc(-c3ccccc3)c2n1 | -8.1% |
| Cc1cccc(N/C(N)=N/c2nc(C(F)(F)F)cc(=O)[nH]2)c1C | -2% |
| Brc1ccccc1CN1CCN(C2CCN(Cc3ccccc3)CC2)CC1 | 0.6% |
| O=C(NC(c1ccccc1Cl)c1c(O)ccc2ccccc12)c1ccccc1 (centres undefined) | 33.2% |
| O=C(CN1C(=O)c2ccc([N+](=O)[O-])cc2C1=O)Nc1ccccc1C(=O)O | 13.6% |
| COCCOC(=O)C1=C(C)N=c2s/c(=C/c3ccccc3OC)c(=O)n2C1c1ccc(OC)cc1 (centres undefined) | -6.5% |
| CCN(CC)c1ccc(/C=N\N2CCN(c3ccc(Cl)cc3)CC2)cc1 | 6.6% |
| COc1cc2c(cc1OC)C(c1ccccc1)NC(C)(C)C2 (centres undefined) | 9% |
| COc1ccc2nc(NC(=O)c3ccc(C)c(C)c3)sc2c1 | 1.7% |
| O=[N+]([O-])c1cccc(CN2CCN(S(=O)(=O)c3ccc(Cl)cc3)CC2)c1 | 6.2% |
| CCN1C(=O)CC(NCCc2ccc(S(N)(=O)=O)cc2)C1=O (centres undefined) | -10.2% |
| N=C1S/C(=C\c2ccc(-c3cccc(C(=O)O)c3)o2)C(=O)N1c1ccc2c(c1)OCO2 | 36% |
| COc1ccc(C(=O)NNC(=O)c2cc(OC)cc(OC)c2)cc1 | 0.7% |
| COc1cc(/C=N\Nc2cc(N(C)C)nc(N(C)C)n2)ccc1O | 10.6% |
| Cc1ccc(-c2nc3cc(NC(=O)COc4ccccc4C)ccc3o2)cc1 | -6.6% |
| O=C(Nc1ccc(N2CCOCC2)c(Cl)c1)c1ccc(-c2ccc(F)cc2)o1 | -17.7% |
| COc1ccc(NC(=O)CN(c2ccc(C)cc2)S(C)(=O)=O)cc1 | -13.8% |
| O=C(O)CSc1ccc(C(F)(F)F)cc1 | 5.4% |
| Nc1cc(NC(=O)c2cccc(Cl)c2)cc(Oc2cccnc2)c1 | -2.4% |
| COCCOC(=O)c1c(C)oc2ccc(OC/C=C/c3ccccc3)cc12 | 9.3% |
| COc1ccc(-c2csc(Nc3ccc(N)cc3)n2)cc1OC | -21% |

| SMILES | displacement |
| --- | --- |
| COC(=O)c1ccc(/C=C2\SC(=S)N(c3cccc(C(F)(F)F)c3)C2=O)cc1 | -13.2% |
| COC(=O)c1c(N)sc2c1CCC(C)C2 (centres undefined) | 0.7% |
| CCOc1ccc(C(=O)N2CCN(c3cccc(Cl)c3)CC2)cc1 | 7.8% |
| Cc1ccc2nc(-c3ccc(C)c(NC(=S)NC(=O)c4ccccc4Cl)c3)oc2c1 | 4.5% |
| CC(C)OC(=O)c1c(NC(=O)c2ccccc2F)sc2c1CCCCC2 | -11.5% |
| O=C(CSc1nc(O)c(Cc2ccccc2)c(=O)[nH]1)Nc1cccc2ccccc12 | 15.3% |
| O=C1CCCN1c1ccc(S(=O)(=O)Nc2cccnc2)cc1 | -13.1% |
| C=C(C)CSc1nnc2n(-c3ccc(C)cc3)c(=O)c3c4c(sc3n12)COC(C)(C)C4 | 8.2% |
| O=C(NC(=S)Nc1ccc(N2CCOCC2)cc1)c1ccc(Cl)cc1 | -15.1% |
| O=C1/C(=C\c2cccc(F)c2)SC(=S)N1Cc1ccccc1 | 31.9% |
| CCOc1ccc(C(=O)Nc2ccc(N3CCN(C(C)=O)CC3)cc2)cc1[N+](=O)[O-] | 16.9% |
| CCCC1=C(C(=O)OCC)C(c2ccc3c(c2)OCO3)NC(=O)N1 (centres undefined) | -8.4% |
| O=C(NCCCN1CCOCC1)c1ccc(C#Cc2ccccc2)cc1 | -8% |
| Cc1ccc(-n2nc3cc(C)c(NC(=O)c4ccccc4I)cc3n2)cc1 | 6.7% |
| CC1C2=C(CC(C)(C)CC2=O)OC2=C1C(=O)CC(C)(C)C2 | -5.3% |
| NS(=O)(=O)c1cccc(NC(=O)c2cccc([N+](=O)[O-])c2)c1 | 8.8% |
| CS(=O)(=O)N(CC(=O)NCCc1ccccc1)c1ccc(Cl)cc1 | 13.7% |
| CCOC(=O)c1c(N2C(=O)CC(Sc3ccccc3C(=O)O)C2=O)sc(C)c1C (centres undefined) | 12.4% |
| Cc1ccc(/C=C2\SC(=S)N(c3cccc(C)c3C)C2=O)cc1 | 14.6% |
| COc1ccc2c(c1)OCC/C2=N/OC(=O)c1ccccc1SC | 12.4% |
| Oc1ccc(C=NN2CCN(Cc3ccccc3)CC2)cc1 | 0.8% |
| O=C1C2CC=C(c3ccccc3)CC2C(=O)N1c1ccc(Br)cc1 (centres undefined) | 12.3% |

| SMILES | displacement |
| --- | --- |
| COc1ccc(N(CC(=O)Nc2ccccc2Cl)S(=O)(=O)c2ccc(C)cc2)c(OC)c1 | 0.1% |
| COc1ccc(N(CC(=O)N2CCCC2)S(=O)(=O)c2ccc(C)cc2)cc1OC | 5.9% |
| CSC1=NC(c2cccc([N+](=O)[O-])c2)C(C(=O)OC(C)C)=C(C)N1 (centres undefined) | -5.5% |
| NS(=O)(=O)c1ccc(Nc2nnc(-c3ccccc3)c3ccccc23)cc1 | -2.3% |
| C=CCN1C(=O)/C(=C\c2cn(Cc3ccccc3Cl)c3ccccc23)SC1=S | 33.7% |
| CCN(/C=N/c1sc2c(c1C#N)CCCC2)CC | -4.6% |
| Cc1cc2nc(NCCCO)n(CC(=O)c3cc(C(C)(C)C)c(O)c(C(C)(C)C)c3)c2cc1C | 12.1% |
| CCOC(=O)c1c(NC(=O)c2ccoc2C)sc2c1CCC(C)C2 (centres undefined) | -2.3% |
| CCOC(=O)c1ccc(N=Cc2nc(-c3ccccc3)oc2O)cc1 | -3.3% |
| CCOC(=O)C1=C(C)NC(=O)NC1c1ccc(F)c(Br)c1 (centres undefined) | 4.2% |
| COC(=O)c1ccc2c(c1)C1C=CCC1C(c1ccc(Br)cc1)N2 (centres undefined) | 0.8% |
| CC(=O)C1=C(O)C(=O)N(CCCC(=O)O)C1c1ccc(F)cc1 (centres undefined) | 7.8% |
| CCOC(=O)C1=C(C)NC(=S)NC1C1CC=CCC1 (centres undefined) | 0.4% |
| CCOC(=O)c1ccc(NC(=O)CC(=O)Nc2ccc(C(=O)OCC)cc2)cc1 | 12.4% |
| Cc1ccc(C2C3=C(CC(C)(C)CC3=O)OC3=C2C(=O)CC(C)(C)C3)cc1[N+](=O)[O-] | 10.5% |
| N=c1n(CCO)c2ccccc2n1Cc1ccccc1Cl | -0.8% |
| COc1ccc(/C(N)=N/OC(=O)c2ccc(Cl)cc2Cl)cc1 | 3.3% |
| O=C(Nc1cccc(-c2nc3ccccc3s2)c1)c1cc2ccccc2o1 | -9.3% |
| O=C1N=C(N2CCOCC2)S/C1=C/c1cccs1 | 10% |
| O=C(COc1ccc(Cl)cc1Cl)NCc1ccccn1 | 1% |
| CC12CN3CC(C)(CN(C1)C(=O)c1ccccc1C3=O)C2=O | 2.2% |
| CC1=C(C(=O)Nc2ccc(Br)cc2)C(c2ccc(C)cc2)NC(=O)N1 (centres undefined) | -2.5% |

| SMILES | displacement |
| --- | --- |
| Clc1ccc(/C=N\N2CCN(C(c3ccccc3)c3ccccc3)CC2)cc1 | -1.3% |
| O=C(O)CSc1nnc(-c2sc3ccccc3c2Cl)n1-c1ccccc1 | 12.2% |
| CCOc1ccc(C(=O)Nc2ccc(C(=O)OC)cc2)cc1[N+](=O)[O-] | 13.1% |
| CCCC(=O)Nc1ccc(NC(=O)c2ccc(-c3ccc(Cl)cc3)o2)cc1 | 3% |
| O=C(CSc1nc2ccccc2[nH]1)N/N=C/c1ccc(Cl)cc1Cl | -3.8% |
| CC(=O)NC1=NC(=O)/C(=C\c2ccc(-c3ccc([N+](=O)[O-])cc3C)o2)S1 | -8.5% |
| C/C(=N\Nc1cc(-c2ccccc2)nc(C)n1)c1ccc(O)cc1 | -7.7% |
| C=CCOc1ccc(/C=N/NC(=O)C(=O)NCc2ccccn2)cc1 | -5.5% |
| COc1ccccc1C/C(N)=N/OC(=O)c1ccco1 | -2.3% |
| O=c1c(Cl)c(Cl)cnn1Cc1ccc(Br)cc1 | -7.5% |
| O=C(Nc1ccc(Cl)cc1)/C(=C\c1cccnc1)NC(=O)c1ccccc1 | -0.3% |
| S=c1[nH]c2ccccc2n1CCOc1ccc(Cl)cc1 | -7% |
| C/C(=N\NC(=O)c1n[nH]c2c1CCC2)c1ccc(N)cc1 | -7.4% |
| Cc1ccc(N2C(=O)C3C4C=CC(C5CC45)C3C2=O)cc1C (centres undefined) | -17% |
| COc1ccc(C(C)=O)c2c(O)cccc12 | -1.8% |
| COc1ccc(/C=C2\SC(=NCc3ccccc3)N(Cc3ccccc3)C2=O)cc1OC | 7.1% |
| Cc1ccc(C2=NN(C(=N)SC3CC(=O)N(c4ccc(F)cc4)C3=O)C(c3ccc(Br)cc3)C2)cc1 (centres undefined) | -1.3% |
| O=C(Nc1ccc([N+](=O)[O-])cc1)c1cc(Br)ccc1Cl | -5.9% |
| Cc1ccc(OCC(=O)NNC(=O)COc2ccccc2)cc1 | 11.1% |
| CCC(=O)Nc1nc(-c2ccccc2)nc(C)c1C(C)=O | -15.4% |
| COc1ccccc1/C=N/N=C1/NC(=O)C(CC(=O)Nc2cccc(C(C)=O)c2)S1 (centres undefined) | 0.6% |
